IC50 is the fitted dose that halves viability relative to control wells, and lower means more sensitive; where the fit passes the top or lowest dose, that dose stands as a limit. The AUC spans the tested range (256-fold, ending at the top dose) of the same fit: 1 means no effect, lower means more sensitive. For some assays here: Any top dose called inferred comes from the curve model; the source does not state it. For some assays here: Where an entry number is given, a second screen of the drug exists; the two often differ.
Tests used:
Assay in all cases: Viability of human cancer cell lines after 72 h of drug (GDSC screen)
XMD13-2 = compound: O=C(NC1CC1)c1cccc(-c2ccc3c(NC(=O)C4CC4)n[nH]c3c2)c1 [XMD13-2]; conditions: top dose 10.24 µM; top dose inferred
Experimental: (§1)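 Human cancer cell lines in 384-well plates, medium with 10% serum, drug for 72 h over a 256-fold dose range (nine 2-fold or five 4-fold steps up to the top dose). Adherent lines were fixed and stained with the nucleic acid dye Syto60, suspension lines read with resazurin; signal relative to control wells, capped at 0 and 100%. One two-parameter sigmoid per drug and line, fitted in a mixed model over all curves with the slope shared within a line.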

Vinblastine = compound: CC[C@]1(O)C[C@@H]2CN(CCc3c([nH]c4ccccc34)[C@@](C(=O)OC)(c3cc4c(cc3OC)N(C)[C@H]3[C@@](O)(C(=O)OC)[C@H](OC(C)=O)[C@]5(CC)C=CCN6CC[C@]43[C@@H]65)C2)C1 [Vinblastine]; conditions: top dose 0.1 µM; top dose inferred
Experimental: as §1

Afatinib = compound: CN(C)C/C=C/C(=O)Nc1cc2c(Nc3ccc(F)c(Cl)c3)ncnc2cc1O[C@H]1CCOC1 [Afatinib]
Experimental: as §1

PF-562271 = compound: CN(c1ncccc1CNc1nc(Nc2ccc3c(c2)CC(=O)N3)ncc1C(F)(F)F)S(C)(=O)=O [PF-562271]; conditions: top dose 2.56 µM; top dose inferred
Experimental: as §1

SNX-2112 = compound: CC1(C)CC(=O)c2c(C(F)(F)F)nn(-c3ccc(C(N)=O)c(N[C@H]4CC[C@H](O)CC4)c3)c2C1 [SNX-2112]; conditions: top dose 2.56 µM
Experimental: as §1

[1] = top dose 0.5 µM, screen: GDSC drug entry 1032
[2] = top dose 10 µM, screen: GDSC drug entry 1377, top dose inferred

Cell Line	AUC (XMD13-2)	IC50 (XMD13-2) [µM]	AUC (Vinblastine)	IC50 (Vinblastine) [nM]	AUC (Afatinib; [1])	IC50 (Afatinib; [1]) [nM]	AUC (Afatinib; [2])	IC50 (Afatinib; [2]) [nM]	AUC (PF-562271)	IC50 (PF-562271) [nM]	AUC (SNX-2112)	IC50 (SNX-2112) [nM]
8505C (thyroid, adherent)	0.919	> 10.2	0.415	3.6	0.982	> 500	0.983	> 10000	0.89	> 2560	–	–
23132-87 (stomach, adherent)	0.945	> 10.2	0.58	10.4	0.982	> 500	0.975	> 10000	0.911	> 2560	–	–
A431 (skin, adherent)	0.887	> 10.2	0.555	8.76	–	–	–	–	0.844	1720	0.338	57.8
Becker (glioma, adherent)	0.877	> 10.2	0.33	1.96	0.967	> 500	0.967	> 10000	0.87	> 2560	–	–
C32 (melanoma, adherent)	0.986	> 10.2	0.734	30.7	–	–	–	–	0.986	> 2560	0.41	89.4
CCF-STTG1 (glioma, adherent)	0.955	> 10.2	0.702	23.3	0.985	> 500	0.987	> 10000	0.923	> 2560	–	–
CFPAC-1 (pancreas, adherent)	0.967	> 10.2	0.82	68.5	0.901	> 500	0.823	7060	0.888	> 2560	–	–
CW-2 (large intestine, adherent)	0.963	> 10.2	0.822	64	–	–	–	–	0.989	> 2560	0.773	1070
DEL (lymphoid neoplasm, suspension)	0.592	1.08	0.224	1.23	–	–	–	–	0.911	2270	0.497	158
DOHH-2 (B-cell lymphoma, suspension)	–	–	0.332	2.16	0.981	> 500	–	–	0.95	> 2560	–	–
DU-145 (prostate, adherent)	0.979	> 10.2	0.863	> 100	–	–	–	–	0.831	1880	0.666	492
EHEB (lymphoid neoplasm, suspension)	–	–	0.755	49	0.974	> 500	0.969	> 10000	0.966	> 2560	–	–
EPLC-272H (lung squamous cell carcinoma, adherent)	0.833	7.8	0.59	11.4	–	–	–	–	0.933	> 2560	0.377	70.2
GAK (melanoma, adherent)	0.985	> 10.2	0.904	> 100	–	–	–	–	0.982	> 2560	0.841	1660
H290 (mesothelioma, adherent)	0.989	> 10.2	0.574	9.8	0.9	> 500	0.719	2440	0.947	> 2560	–	–
H3255 (lung adenocarcinoma, adherent)	0.959	> 10.2	0.682	22.4	–	–	–	–	0.928	> 2560	0.911	> 2560
HARA (lung squamous cell carcinoma, adherent)	0.898	> 10.2	0.446	4.34	–	–	–	–	0.907	> 2560	0.49	149
IM-9 (myeloma, suspension)	–	–	0.752	29.3	0.99	> 500	0.991	> 10000	0.991	> 2560	–	–
IST-SL2 (small cell lung carcinoma, suspension)	0.7	2.32	0.744	30.9	0.973	> 500	0.973	> 10000	0.962	> 2560	–	–
JHU-029 (head and neck, adherent)	–	–	0.368	2.47	0.6	62.7	0.318	171	0.914	> 2560	–	–
K5 (thyroid, adherent)	0.962	> 10.2	0.468	5.13	0.904	> 500	0.958	> 10000	0.943	> 2560	–	–
KARPAS-231 (B-cell leukaemia, suspension)	0.52	0.716	0.296	1.96	0.874	305	0.994	> 10000	0.958	> 2560	–	–
KASUMI-1 (acute myeloid leukaemia, suspension)	0.881	> 10.2	0.645	15.7	0.957	> 500	0.903	> 10000	0.867	–	–	–
KP-1N (pancreas, adherent)	–	–	0.583	10.7	0.986	> 500	0.966	> 10000	0.889	> 2560	–	–
LB647-SCLC (small cell lung carcinoma, semi-adherent)	–	–	0.699	24.3	0.985	> 500	0.982	> 10000	0.973	> 2560	–	–
LB831-BLC (bladder, adherent)	0.951	> 10.2	0.683	20.4	0.987	> 500	0.966	> 10000	0.826	1590	–	–
NB17 (neuroblastoma, adherent)	–	–	0.675	20.8	0.984	> 500	0.982	> 10000	0.922	> 2560	0.787	1300

Cell Line	AUC (XMD13-2)	IC50 (XMD13-2) [µM]	AUC (Vinblastine)	IC50 (Vinblastine) [nM]	AUC (Afatinib; [1])	IC50 (Afatinib; [1]) [nM]	AUC (Afatinib; [2])	IC50 (Afatinib; [2]) [nM]	AUC (PF-562271)	IC50 (PF-562271) [nM]	AUC (SNX-2112)	IC50 (SNX-2112) [nM]
NCI-H1963 (small cell lung carcinoma, suspension)	–	–	0.649	15.3	0.991	> 500	–	–	0.928	> 2560	0.959	> 2560
QGP-1 (pancreas, adherent)	0.846	> 10.2	0.976	> 100	0.977	> 500	0.954	> 10000	–	–	0.494	153
RCC-AB (kidney, adherent)	0.795	6.47	0.891	> 100	0.822	415	0.693	2580	–	–	0.564	252
RCC-ER (kidney, adherent)	0.981	> 10.2	0.821	67.2	0.986	> 500	0.958	> 10000	–	–	0.986	> 2560
RCC-FG2 (kidney, adherent)	0.954	> 10.2	0.807	69.1	0.978	> 500	0.874	> 10000	–	–	0.696	668
RCC-JF (kidney, adherent)	0.955	> 10.2	0.548	8.59	0.681	107	0.828	7240	–	–	0.345	55.9
RCC-JW (kidney, adherent)	0.898	> 10.2	0.531	7.62	0.951	> 500	0.903	> 10000	–	–	0.888	> 2560
RCC-MF (kidney, adherent)	0.825	8.7	0.659	19.7	0.879	> 500	0.763	4640	–	–	0.719	813
SBC-5 (small cell lung carcinoma, adherent)	0.976	> 10.2	0.535	7.66	0.993	> 500	0.993	> 10000	–	–	0.803	1000
SCC90 (head and neck, adherent)	–	–	0.66	21.1	0.724	180	0.725	3620	0.834	> 2560	–	–
SK-GT-4 (oesophagus, adherent)	0.917	> 10.2	0.511	6.73	0.911	> 500	0.884	> 10000	–	–	0.635	415
SK-MEL-5 (melanoma, adherent)	0.964	> 10.2	0.47	5.09	0.977	> 500	0.938	> 10000	–	–	0.983	> 2560
SK-MG-1 (glioma, adherent)	0.984	> 10.2	0.432	4.06	0.979	> 500	0.97	> 10000	–	–	0.429	102
SNU-61 (large intestine, adherent)	0.899	> 10.2	0.889	> 100	0.96	> 500	0.951	> 10000	–	–	0.503	163
SNU-81 (large intestine, adherent)	0.913	> 10.2	0.816	81	0.981	> 500	0.977	> 10000	–	–	0.953	> 2560
SNU-407 (large intestine, adherent)	0.903	> 10.2	0.719	29.4	0.967	> 500	0.946	> 10000	–	–	0.513	175
SNU-C5 (large intestine, adherent)	0.972	> 10.2	0.643	16.3	0.951	> 500	0.962	> 10000	–	–	0.695	601
STS-0421 (soft tissue, adherent)	–	–	0.572	10.2	0.978	> 500	0.963	> 10000	0.81	1630	–	–
SW1271 (small cell lung carcinoma, adherent)	0.944	> 10.2	0.703	25.7	0.984	> 500	0.982	> 10000	–	–	0.52	183
TE-4 (oesophagus, adherent)	0.97	> 10.2	0.367	2.69	0.257	6.32	0.065	< 39.1	–	–	0.95	> 2560
TK10 (kidney, adherent)	0.935	> 10.2	0.748	38	0.717	148	0.473	520	0.906	> 2560	–	–
TK (B-cell lymphoma, suspension)	0.887	9.71	0.678	18.7	0.989	> 500	0.978	> 10000	0.976	> 2560	–	–
TMK-1 (stomach, adherent)	0.974	> 10.2	0.438	4.18	0.908	> 500	0.935	> 10000	–	–	0.893	> 2560
UWB1.289 (ovary, adherent)	0.941	> 10.2	0.789	71	0.837	> 500	0.777	6280	–	–	0.979	> 2560
YH-13 (glioma, adherent)	0.941	> 10.2	0.438	4.19	0.986	> 500	0.904	> 10000	–	–	0.561	238
huH-1 (liver, adherent)	0.984	> 10.2	0.752	40.4	0.974	> 500	0.982	> 10000	–	–	0.973	> 2560

Source: the supplement of paper PMC4967469
